According to PubChem BioAssay AID686970 (National Center for Advancing Translational Sciences (NCATS), 2013):
Out of some 360,000 compounds screened, about 6,000 (1.7%) were called active. The shares of active, inactive and inconclusive entries below differ from those in the screen. The call rests on the fitted dose curve; in most records, active means well fitted cell-killing curve with a large enough effect; inconclusive means small, poorly fitted or top-dose-only effect, or effect the other way; inactive means flat fitted curve, though single readings scatter. No potency is given beside an inconclusive call; the fits are too rough.

test: qHTS for induction of synthetic lethality in tumor cells producing 2HG: qHTS for the HT-1080-NT fibrosarcoma cell line; conditions: HT-1080-NT fibrosarcoma viability, CellTiter-Glo ATP luminescence, 48 h; activity, negative = less viability: at 46.1 µM (top of the series) unless noted;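 further: NT is the 2HG producing partner of a matched IDH1 knockdown line; nearly all actives have a fitted effect of over 55% in size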;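 on activity, negative = less viability: 0% = DMSO-treated cells and -100% = media-only wells without cells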
How it was run: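 750 cells/well, RPMI + 5% FBS; 2 h settle, compound pin-transfer, 48 h at 37 degrees C. CellTiter-Glo 10 min RT, luminescence. Normalized to DMSO and media-only wells.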
Potency means the concentration at half of the fitted maximal effect; tags describe the fitted curve by direction and shape.

SMILES | Potency | activity, negative = less viability
CCOc1ccc(NC(=S)NCc2cccnc2)cc1 | inconclusive [rising, single point] | –
Fc1cccc(Cc2noc(CN3CCOCC3)n2)c1 | – | inactive: 0%
Cc1c(C(=O)OC2CCCC2)[nH]c2c1C(=O)CC(c1ccco1)C2 (stereo unspecified) | active: 0.517 µM | –
COc1ccc(CNC(=O)CN(c2cc(C)cc(C)c2)S(=O)(=O)c2c(C)[nH]c(=O)[nH]c2=O)cc1 | – | inactive: 0.247%
COc1ccccc1C(=O)N1CCN(c2nc3cc(C)cc(C)c3cc2C#N)CC1 | – | inactive: 0.38%
Cc1ccc(C(=O)CSC2=C(C#N)C(c3ccco3)C3=C(CCCC3=O)N2)cc1 (stereo unspecified) | active: 5.01 µM | –
O=C(NC(c1ccc(Cl)cc1)c1c(O)ccc2ccccc12)c1ccccc1 (stereo unspecified) | inconclusive [cytotoxic, partial curve] | –
Cc1sc(NC(=O)c2ccccc2)c(C(c2ccccn2)N2CCN(CCO)CC2)c1C (stereo unspecified) | – | inactive: -23.3%
COc1ccc(CC(=O)O/N=C(\N)c2ccc(Br)cc2)cc1OC | inconclusive [cytotoxic, single point] | –
CCc1cc(C(=O)N2CCN(c3ccccn3)CC2)sc1C | – | inactive: 20.7%
COCCNC(=O)Cc1c(C)c2c(cc(C)c3c(C(C)(C)C)coc32)oc1=O | active: 6.51 µM | –
CSc1ccc2c(c1)C(N1CCN(C)CC1)Cc1ccccc1S2 (stereo unspecified) | active: 25.9 µM | –
Cc1ccc(S(=O)(=O)N2[C@@H](c3ccc(C(C)(C)C)cc3)C(C(=O)O)=CC[C@H]2c2cccc(Cl)c2)cc1 | inconclusive [cytotoxic, single point] | –
Cc1ccc(Nc2cc(C)nc3ccc(C)cc23)cc1 | inconclusive [cytotoxic, single point] | –
c1ccc(-c2cc3nc(NCc4cccs4)nc(NCc4ccc5occc5c4)c3s2)cc1 | active: 16.4 µM | –
CCOc1ccc(NC(=S)N2CCC(NC(=O)C3CCCCC3)CC2)cc1 | – | inactive: 2.48%
CNC(=O)C[C@H]1C(=O)N(c2ccc(OC)cc2)C[C@@H]1C | – | inactive: 4.19%
COc1ccc2[nH]cc(C(=O)CCl)c2c1 | active: 5.8 µM | –
Cc1cc(NC(=O)CSc2nc(C(C)(C)C)nc3ccccc23)no1 | – | inactive: -0.32%
CCc1cc2cc(C)ccc2nc1SCC(=O)N1CC(=O)Nc2ccccc21 | inconclusive [cytotoxic, single point] | –
O=C(c1ccncc1)N(c1ccc2oc3c(c2c1)CCCC3)S(=O)(=O)c1cccc([N+](=O)[O-])c1 | inconclusive [cytotoxic, single point] | –
CCc1nc2c(OCC(=O)c3ccc(Cl)cc3Cl)cccn2c1N(C)C(=O)c1cccs1 | inconclusive [cytotoxic, single point] | –
Cc1ccc(C(=O)N2CCCC(C(=O)c3ccc(Oc4ccccc4)cc3)C2)cn1 (stereo unspecified) | – | inactive: -20.5%
NC(c1csc(NC(=O)Nc2ccc(OC(F)(F)F)cc2)n1)C1CCCCC1 (stereo unspecified) | active: 16.4 µM | –

SMILES | Potency | activity, negative = less viability
CC(C)(C)Cc1c(-c2ccc(C#N)cc2)nc2c(Cl)cc(C(F)(F)F)cn12 | inconclusive [cytotoxic, single point] | –
O=C(NC(C(=O)N/N=C/c1cccc2ccccc12)c1n[nH]c(=O)c2ccccc12)c1ccccc1 (stereo unspecified) | inconclusive [cytotoxic, single point] | –
Cn1c(=O)c2c(nc(NCc3ccc4c(c3)OCO4)n2Cc2ccccc2)n(C)c1=O | inconclusive [cytotoxic, single point] | –
O=S(=O)(c1cc(Cl)ccc1Cl)N1CCc2ccccc21 | – | inactive: 8.48%
COc1ccc(/C=N/NC(=O)c2[nH]c3ccc(C)cc3c2-c2ccccc2)c(C(=O)O)c1OC | inconclusive [cytotoxic, single point] | –
Cc1sc(NC(=O)c2ccco2)c(C(c2cccnc2)N2CCCC2)c1C (stereo unspecified) | inconclusive [cytotoxic, single point] | –
COCCNC(=O)c1cc(-c2ccccc2OC)on1 | inconclusive [cytotoxic, single point] | –
CC(=O)Oc1ccc(OC(C)=O)c(SCCCCCCl)c1 | inconclusive [cytotoxic, partial curve] | –
O=S(=O)(Nc1ccc(N=Nc2ccc(O)c3ccccc23)cc1)c1ccccc1 | – | inactive: -21.7%
Cc1cc(N2CCCC2)ccc1/C=C1/C(=O)N(C)C(=S)N1C | – | inconclusive: -12.8% [cytotoxic]
CCCCc1ccc(NC(=O)CSC2=NN3CCCC(=O)N=C3S2)cc1 | inconclusive [cytotoxic, partial curve] | –
O=S1(=O)CCC(NC(=S)SCc2ccccc2Br)C1 (stereo unspecified) | inconclusive [cytotoxic, single point] | –
CC1C/C(=C/c2ccncc2)C(=O)/C(=C/c2ccncc2)C1 (stereo unspecified) | inconclusive [cytotoxic, full curve, poor fit] | –
CCOc1cc(C(C(=O)NCC2CCCO2)N(C(=O)Cn2nnc3ccccc32)c2ccc(C(C)=O)cc2)ccc1O (stereo unspecified) | – | inactive: 1.42%
COc1ccccc1NS(=O)(=O)c1cc(-c2cnc(C3CC3)o2)ccc1C | inconclusive [cytotoxic, single point] | –
COc1ccc(/C=N/NC(=O)c2c(C)nc3ccc(Cl)cn23)cc1OC | inconclusive [cytotoxic, single point] | –
C[C@H](CO)N1C[C@H](C)[C@@H](CN(C)S(=O)(=O)c2ccccc2C#N)OCc2cnnn2CCCC1=O | – | inactive: -7.47%
O=C(NC(NC(=S)Nc1c(Cl)cccc1Cl)C(Cl)(Cl)Cl)OCc1ccccc1 (stereo unspecified) | inconclusive [cytotoxic, partial curve] | –
C=CCOc1ccc(CNn2cn[nH]c2=S)cc1OCC | inconclusive [cytotoxic, single point] | –
Cc1ccc(-n2nc(C)c3c2NC2=C(C(=O)CC(C)(C)C2)C3c2ccccc2OCC(=O)O)cc1 (stereo unspecified) | inconclusive [cytotoxic, single point] | –
Cc1ccc(S(=O)(=O)NCCC(=O)N2CCCCCCC2)cc1C | – | inactive: 1.91%
CCOC(=O)C(Cc1ccccc1)C(=O)NCc1ccccc1 (stereo unspecified) | – | inactive: -3.56%
COCOc1cccc(CN2CCC2(C)C(=O)Nc2cc(OC)ccc2OC)c1 (stereo unspecified) | – | inconclusive: -4.37%
O=C(NC1CCCCC1)C1c2ccccc2OCC(=O)N1Cc1ccccn1 (stereo unspecified) | – | inactive: 7.04%

SMILES | Potency | activity, negative = less viability
Cc1ccc(NS(=O)(=O)c2ccc(N3CCN(c4ccc(O)cc4)CC3)c([N+](=O)[O-])c2)c(C)c1 | inconclusive [cytotoxic, single point] | –
Cc1cc(-n2c(SCC(=O)Nc3ccc(F)c(F)c3)nc3n[nH]c(C)c3c2=N)ccc1Cl | inconclusive [cytotoxic, single point] | –
O=C(c1ccco1)N1CCN(C(=O)C2CCN(S(=O)(=O)Cc3ccccc3)CC2)CC1 | – | inactive: -1.06%
CCOC(=O)[C@]12CCC=C1N(Cc1ccc3c(c1)OCO3)C(=O)[C@H](CC(=O)NCc1cccs1)C2 | – | inactive: 6.25%
COc1cc(OC)cc(C(=O)NCC(=O)OCC(=O)/C=C2/N(C)c3ccccc3C2(C)C)c1 | inconclusive [cytotoxic, single point] | –
COc1ccc(C(O)c2nc(-c3ccc(OC)nc3)cs2)cc1 (stereo unspecified) | – | inactive: 1.33%
Cc1ccc(O)c(N=Nc2ccccc2)n1 | inconclusive [cytotoxic, partial curve] | –
Oc1ccc(C[C@H]2CNC(=S)N2C[C@H]2CCCN2C[C@H](Cc2ccccc2)N2C[C@H](Cc3ccccc3)N(CC3CCCCC3)C2=S)cc1 | inconclusive [cytotoxic, partial curve] | –
CCOC(=O)C1=C(Cc2ccc(OC)cc2)C(=O)c2ccccc2C1=O | active: 10 µM | –
CCOc1cccc2c1OC1(C)CC2NC(=O)N1c1ccc(OC)cc1 (stereo unspecified) | inconclusive [rising, partial curve] | –
Cc1ccc2nc(-c3ccc(NS(=O)(=O)c4ccc(F)cc4)cc3)sc2c1 | inconclusive [cytotoxic, single point] | –
Cc1cccc(-c2nnc(-c3cccc4ccccc34)o2)c1 | – | inactive: -13.2%
CN=c1scc(C)n1/N=C/c1cc(Br)c(O)c(Br)c1 | – | inactive: -13%
N=C1C(c2nc3ccccc3s2)=C(O)CN1Cc1ccco1 | – | inconclusive: -34.4% [cytotoxic]
CN(C(=O)c1ccccc1C(=O)OCC(=O)Nc1ccc(OC(F)F)cc1)c1ccccc1 | – | inactive: -1.03%
O=C(Nc1ccc(Oc2ccccc2)cc1)c1csc([C@H]2C[C@H](O)[C@@H](CO)O2)n1 | inconclusive [cytotoxic, partial curve, poor fit] | –
O=C(N=Nc1c(O)n(Cc2ccccc2)c2ccccc12)c1ccncc1 | inconclusive [cytotoxic, single point] | –
Cc1cc(OCC(=O)NNC(=S)NC(=O)c2cccs2)ccc1Cl | inconclusive [cytotoxic, single point] | –
COc1ccc(C2CC(c3ccc(C)cc3)=NN2C(=O)c2ccccc2)cc1 (stereo unspecified) | inconclusive [cytotoxic, single point] | –
Clc1ccc2oc(-c3ccccc3)cc(=NCCCN3CCOCC3)c2c1 | inconclusive [cytotoxic, partial curve, poor fit] | –
CCSc1nnc(N(CCC#N)CCC#N)s1 | – | inconclusive: 36.6%
Cc1cc(C)cc(NC(=O)/C(C#N)=C/c2cn(CC(=O)NCc3ccco3)c3ccccc23)c1 | active: 10.3 µM | –
Cc1ccc2c(c1)c1c3n2CCCNC3CCC1 (stereo unspecified) | inconclusive [cytotoxic, single point] | –
